# According to PubChem BioAssay AID686978 (National Center for Advancing Translational Sciences (NCATS), 2013):
# Where “and” joins values, the source holds several entries; their conditions need not be identical. Equal entries are not always repeated. Among all 420,000 compounds or so, about 64,000 (15%) were called active. Inconclusive means that the source gave no clear call. Such entries were picked first, then a sample of the others. Calls follow the shape of the dose curve; as a rule, active = well fitted inhibition curve with a large enough effect; inconclusive = small, poorly fitted or top-dose-only effect; inactive = flat fitted curve, though single readings scatter. Potencies of inconclusive entries are left out as doubtful fits.
# Experiment: qHTS for Inhibitors of human tyrosyl-DNA phosphodiesterase 1 (TDP1): qHTS in cells in absence of CPT; also: nearly all actives have a fitted effect of over 55% in size
# Settings: DT40 Tdp1-/- hTDP1 cells, no CPT, ATP luminescence, 48 h; activity change, negative = growth inhibition: at 46.2 µM (top of the series) unless noted
# Outline: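 A cellular qHTS used chicken DT40 cells lacking endogenous Tdp1 but carrying stably transfected human TDP1. Compounds were applied without camptothecin, and cell growth kinetics were judged by ATP-dependent luminescence after ≥48 hr.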
# % is scaled to controls: 0 for no effect and ±100 for the full control effect; potency is read from the fitted curve at half-maximal effect; tags tell the direction and shape of the fitted curve.
SMILES,"activity change, negative = growth inhibition",Potency
Cc1ccc(N(CC(=O)NC(C)(C)C)C(=O)CS(=O)CC(=O)Nc2ccc3c(c2)OCO3)cc1 (stereo unspecified),inactive: -6.19%,–
CCc1nc2ccc(C(=O)NCc3ccccc3OC)cn2c1N(C=O)CCC(C)C,–,active: 16.4 µM
Cc1cc(Br)cc(C)c1NC(=O)c1ccccc1[N+](=O)[O-],inactive: 0.0471%,–
COc1ccccc1N1C(=O)c2ccc(C(=O)Nc3ccc(C(=O)O)cc3)cc2C1=O,inactive: -0.522%,–
CC1CC(C)CN(C(=O)Cn2ncc3c([nH]c4ccccc43)c2=O)C1 (stereo unspecified),–,"inconclusive [inhibitor, partial curve]"
Cn1c(SCC(=O)Nc2ccc3[nH]c(=O)[nH]c3c2)nnc1-c1ccc(F)cc1,inactive: 11.6%,–
COc1c(C)cc(C(=O)C2CCCN(Cc3cnc(N4CCOCC4)s3)C2)cc1C (stereo unspecified),–,"inconclusive [inhibitor, partial curve, poor fit]"
CC(C)c1ccc(CCNC(=O)c2cccc(S(=O)(=O)N3CCN(C)CC3)c2)cc1,–,"inconclusive [inhibitor, single point]"
CCOC(=O)Cn1c(CN(Cc2ccccc2)Cc2ccccc2)nc2c1c(=O)n(C)c(=O)n2C,–,"inconclusive [inhibitor, single point]"
Cc1noc(C)c1C(=O)Nc1ccc(-n2ccc(C(F)(F)F)n2)cc1,–,"inconclusive [inhibitor, partial curve, poor fit]"
CCOC(=O)c1ccc(NC(=O)CSc2nc(=O)n(CCN3CCOCC3)c3c2CCC3)cc1,inactive: -19.9%,–
COc1ccc(S(=O)(=O)N2CCCCCC2)cc1C(=O)NCCOc1ccc(C)cc1,–,"inconclusive [inhibitor, single point]"
Cc1ccc(C(=O)Nc2ccc(C(=O)OCc3cc(=O)n4nc(C5CC5)sc4n3)cc2)cc1,inactive: -26.8%,–
COC(=O)CSc1nc(N2CCOCC2)c2c(c1C#N)CC(C)(C)OC2,inactive: -24.6%,–
Cc1ccc(-c2ccnc(-c3ccc(O)cc3)n2)cc1,inactive: -21.9%,–
CC(=O)Nc1ccc(S(=O)(=O)NCCC(=O)OCc2ccc([N+](=O)[O-])cc2)cc1,–,active: 16.4 µM
CNC(=O)c1cc(S(=O)(=O)Nc2ccc3c(c2)OCO3)ccc1C,inactive: 0.784%,–
CCn1ncc(C2=NOC(C(=O)Nc3cnn(C45CC6CC(CC(C6)C4)C5)c3)C2)c1C (stereo unspecified),–,"inconclusive [inhibitor, single point]"
COc1cc(OC)c(NC(=S)Nc2cccc(C)c2)cc1Cl,–,active: 9.2 µM
CCN1CCN(C(c2cccs2)C(C)NC(=O)CC(C)C)CC1 (stereo unspecified),inactive: -20%,–
O=C(CSc1nc2ccc([N+](=O)[O-])cc2[nH]1)NC1CCCCC1,–,active: 25.9 µM
CCC(C)Nc1nc(Cl)nc(NCCOc2ccccc2)n1 (stereo unspecified),inactive: -23.9%,–
Cc1ccc(N/N=C(\C#N)C(=O)c2ccsc2)cc1,–,"inconclusive [inhibitor, single point]"

SMILES,"activity change, negative = growth inhibition",Potency
COc1ccc(N2CCN(c3c4c(nc5nncn35)CCC4)CC2)cc1,–,active: 8.2 µM
COc1ccc(C(=O)CSc2nnc(CN3CCCCC3)n2-c2ccc(F)cc2)cc1OC,–,"inconclusive [inhibitor, partial curve]"
COc1ccc(NC(=O)C(=O)NCC(c2ccc3c(c2)OCO3)N2CCN(C)CC2)cc1 (stereo unspecified),–,"inconclusive [inhibitor, single point]"
Cc1ccnc(NC(=O)CN(C)S(=O)(=O)c2cccc3nsnc23)c1,–,active: 7.31 µM
CN(Cc1ccccc1)C(=O)c1[nH]cnc1C(=O)N[C@@H](Cc1ccccc1)C(=O)OC(C)(C)C,–,"inconclusive [inhibitor, single point]"
O=S(=O)(NCc1ccc2c(c1)OCO2)c1ccc(Cl)s1,inactive: -2.25%,–
COc1ccc(NC(=O)C(=O)NCCC2CCCCN2S(=O)(=O)c2ccc(F)cc2)cc1 (stereo unspecified),–,active: 10.3 µM
COc1ccc(OC)c(CNC(=O)CCCc2cn(C)c3ccccc23)c1,–,"inconclusive [inhibitor, single point]"
COc1cc(/C=N/NC(=O)c2ccc(N)cc2)ccc1OC(=O)c1cccc(C)c1,–,"inconclusive [inhibitor, single point]"
O=C1N=C(O)CN1/N=C\c1ccc(-c2ccc([N+](=O)[O-])cc2)o1,–,"inconclusive [inhibitor, partial curve]"
O=C(CCN1C(=O)C2CCCCC2C1=O)Nc1ccc(F)c(F)c1F (stereo unspecified),inactive: -25.2%,–
CCn1cc(C(=O)N2CCN(c3ccc(F)cc3)CC2)c(=O)c2cc(S(=O)(=O)N3CCOCC3)ccc21,inactive: 1.89%,–
Cc1ccccc1CSc1nnc(Cn2c(=O)sc3ccccc32)n1C,inactive: -17.7%,–
O=C1/C(=C\c2ccco2)SC(=S)N1C1CCS(=O)(=O)C1 (stereo unspecified),–,active: 20.6 µM
Clc1cccc(-c2nc3ccc(Br)cn3c2Cc2ccsc2)c1,–,"inconclusive [inhibitor, partial curve]"
COc1ccccc1-c1nc(C#N)c(NCc2ccc(F)cc2)o1,–,"inconclusive [inhibitor, partial curve]"
Cc1ccc(S(=O)(=O)N2CC=C(C(=O)NC3CC3)CC2)cc1,–,"inconclusive [inhibitor, single point]"
N#CC1=C(N)Oc2cc(O)ccc2C1c1cccs1 (stereo unspecified),–,"inconclusive [inhibitor, partial curve]"
COc1ccc(C(=O)N2CCc3c([nH]c4ccccc34)C2C(F)(F)F)cc1 (stereo unspecified),–,"inconclusive [inhibitor, single point]"
CCOC(=O)[C@]12CCC=C1N(Cc1ccc3c(c1)OCO3)C(=O)[C@H](CC(=O)NCc1ccc(C)o1)C2,–,active: 23.1 µM
COc1cc(Br)cc(CN2CCN(c3ncccn3)CC2)c1O,–,"inconclusive [inhibitor, single point]"
Cc1ccc(/C=N/n2c(-c3cccs3)n[nH]c2=S)cc1,–,"inconclusive [inhibitor, single point]"
CCOc1cc(CNC(=O)CCCn2c(=O)c3cccn3c3cccnc32)cc(OCC)c1OCC,–,active: 16.4 µM and active: 23.1 µM
